{"source": "PubChem BioAssay AID602310", "about": "(National Center for Advancing Translational Sciences (NCATS), 2012)", "note": "The campaign covered roughly 410,000 compounds. About 310 (0.076%) were called active. The shares of active, inactive and inconclusive entries below differ from those in the screen. Calls come from the whole dose curve; as a rule, active = well fitted curve in the direction sought with a large enough effect; inconclusive = small, poorly fitted or top-dose-only effect; inactive = flat fitted curve, though single readings scatter. Potencies of inconclusive entries are doubtful fits and often do not repeat. Potency is the fitted concentration of half-maximal effect; tags give direction and shape of the fitted curve."}
{"target": "DNA dC->dU-editing enzyme APOBEC-3G (Homo sapiens) (UniProt Q9HC16)", "sequence (Q9HC16 whole entry, looked up)": "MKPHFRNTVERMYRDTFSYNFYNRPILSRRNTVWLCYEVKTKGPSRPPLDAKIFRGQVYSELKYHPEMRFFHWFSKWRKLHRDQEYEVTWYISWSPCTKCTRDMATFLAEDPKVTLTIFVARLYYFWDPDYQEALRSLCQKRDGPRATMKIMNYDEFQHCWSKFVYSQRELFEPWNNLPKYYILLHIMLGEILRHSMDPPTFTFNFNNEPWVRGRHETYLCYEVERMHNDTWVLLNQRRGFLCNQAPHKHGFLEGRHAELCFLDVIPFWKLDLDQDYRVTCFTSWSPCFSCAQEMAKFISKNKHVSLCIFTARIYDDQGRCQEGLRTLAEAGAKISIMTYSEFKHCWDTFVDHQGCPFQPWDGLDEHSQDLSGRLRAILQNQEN", "experiment": "qHTS for Inhibitors of Vif-A3G Interactions: qHTS; note: nearly all actives have a fitted effect of over 60% in size", "conditions": "HeLa A3G-eYFP + Vif (tagged APOBEC3G with the HIV-1 protein that degrades it), YFP fluorescence, overnight; series mostly up to 46.1 µM", "method_in_brief": "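Read-out is eYFP fluorescence (Ex 488/Em 500-530) from Vif-expressing HeLa A3G-eYFP cells; more signal means A3G escaped Vif-mediated degradation. Cells plated overnight, compound pinned in, incubated overnight at 37 deg C.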"}
{"molecule": "COc1ccc(-c2csc3ncnc(NCCN4CCOCC4)c23)cc1", "Potency": "inconclusive: 22.4 µM [inhibitor, single point]"}
{"molecule": "COc1ccc(CC(=O)OCC(=O)Nc2ncc(Cl)c(C)c2Cl)cc1", "Potency": "inactive"}
{"molecule": "COc1ccc(C(C)(O)c2nc(-c3ccccc3OC)cs2)cc1", "note": "(stereo not given)", "Potency": "inconclusive: 7.08 µM [inhibitor, full curve]"}
{"molecule": "CCc1nc2c(c(=O)c3ccccc3n2C)c(=O)n1C1CCCCCC1", "Potency": "inconclusive: 10 µM [inhibitor, partial curve, poor fit]"}
{"molecule": "COc1ccc(CNC(=O)CCCn2ccc3cc(S(=O)(=O)N4CCCC4)ccc32)cc1", "Potency": "inactive"}
{"molecule": "O=C(NCCOc1ccccc1)c1cc([N+](=O)[O-])ccc1N1CCOCC1", "Potency": "inconclusive: 2.51 µM [inhibitor, full curve]"}
{"molecule": "Cc1c(Cc2ccccc2)sc(/N=C/c2ccc3ccccc3c2)c1C(N)=O", "Potency": "inconclusive: 12.6 µM [inhibitor, partial curve]"}
{"molecule": "COc1ccc2oc(=Nc3cc(F)ccc3F)c(C(N)=O)cc2c1", "Potency": "inconclusive: 5.01 µM [inhibitor, partial curve]"}
{"molecule": "CCOC(=O)c1cccc(NC(=O)CCc2c(C)nn(-c3ccc(N4CCCCC4)nn3)c2C)c1", "Potency": "inactive"}
{"molecule": "O=C(NCCCN1CCOCC1)c1ccc(/C=C2\\Oc3ccccc3N(Cc3ccccc3F)C2=O)cc1", "Potency": "inconclusive: 5.62 µM [inhibitor, single point]"}
{"molecule": "COc1cc2c(c(OC)c1OC)-c1ccc(NCc3ccccc3)c(=O)cc1C(NC(C)=O)CC2", "note": "(stereo not given)", "Potency": "inconclusive: 0.891 µM [inhibitor, full curve, poor fit]"}
{"molecule": "CC(=O)Nc1ccc(Nc2nc(-c3c(C)nc4ccccn34)cs2)cc1", "Potency": "inconclusive: 1.12 µM [inhibitor, full curve, poor fit]"}
{"molecule": "Cc1ccc(S(=O)(=O)Nn2c(O)c(C=C3N=c4ccccc4=N3)sc2=S)cc1", "Potency": "inactive"}
{"molecule": "O=C(COc1ccccc1[N+](=O)[O-])Nc1ccc(NC(=O)c2cc3ccccc3o2)cc1", "Potency": "inconclusive: 10 µM [inhibitor, partial curve]"}
{"molecule": "Cc1ccc(F)c(S(=O)(=O)NC(=O)C2(C)CCN2C(=O)Cc2ccc(Cl)cc2Cl)c1", "note": "(stereo not given)", "Potency": "inconclusive: 15.8 µM [inhibitor, partial curve, poor fit]"}
{"molecule": "CC1(C(=O)NCCC(F)(F)F)Cc2c(-c3ccccc3)ccnc2O1", "note": "(stereo not given)", "Potency": "inconclusive: 22.4 µM [inhibitor, single point]"}
{"molecule": "O=C(O)c1ccccc1/C=N/Nc1ccc(S(=O)(=O)N2CCOCC2)cc1[N+](=O)[O-]", "Potency": "active: 6.31 µM"}
{"molecule": "CCc1cccc(NC(=O)C2CCCN(c3ncnc4c3nc3n4CCCCC3)C2)c1", "note": "(stereo not given)", "Potency": "inactive"}
{"molecule": "CCC(=NCCc1c(C)[nH]c2ccc(OC(F)(F)F)cc12)C1=C(O)CC(c2ccccc2)CC1=O", "note": "(stereo not given)", "Potency": "inconclusive: 3.16 µM [inhibitor, partial curve, poor fit]"}
{"molecule": "O=C(Oc1ccc(F)cc1C(=O)/C=C/c1cccs1)c1cccc([N+](=O)[O-])c1", "Potency": "inconclusive: 10 µM [inhibitor, partial curve, poor fit]"}
{"molecule": "COc1ccc(NC(=O)C2Cc3c(-c4cccc(C(C)=O)c4)ccnc3O2)cn1", "note": "(stereo not given)", "Potency": "inconclusive: 1.78 µM [inhibitor, full curve]"}
{"molecule": "CC1=CC(C)(C)Nc2ccc(OC(=O)C(C)N3C(=O)c4ccccc4C3=O)cc21", "note": "(stereo not given)", "Potency": "inconclusive: 22.4 µM [inhibitor, single point]"}
{"molecule": "Cc1[nH]c(=O)c(C(=O)c2cc(Cl)ccc2O)cc1C(=O)O", "Potency": "inconclusive: 11.2 µM [inhibitor, single point]"}
{"molecule": "c1cc2ccc3ccc(-n4cnnn4)c4ccc(c1)c2c34", "Potency": "inconclusive: 35.5 µM [inhibitor, single point]"}
{"molecule": "CC(C)n1cc(/C=N/NC(=O)COc2cccc3cccnc23)c2ccccc21", "Potency": "inconclusive: 22.4 µM [inhibitor, single point]"}
{"molecule": "Cc1c(C(=O)OCc2ccccc2)[nH]c2c1C(=O)CC(c1ccco1)C2", "note": "(stereo not given)", "Potency": "inconclusive: 0.631 µM [inhibitor, full curve, poor fit]"}
{"molecule": "CCC1(C)Cc2ccccc2-c2[nH][nH]c(=O)c21", "note": "(stereo not given)", "Potency": "inconclusive: 5.62 µM [inhibitor, single point]"}
{"molecule": "Cc1ccc(OC(C)C(=O)N=Nc2c(O)[nH]c3ccc([N+](=O)[O-])cc23)cc1", "note": "(stereo not given)", "Potency": "inconclusive: 20 µM [inhibitor, single point]"}
{"molecule": "COc1ccc(CN2C(=O)CCCc3ccccc32)cc1", "Potency": "inconclusive: 35.5 µM [inhibitor, single point]"}
{"molecule": "COC(=O)c1ccc(C2N=C(c3cccs3)CC(c3ccccc3O)N2)cc1", "note": "(stereo not given)", "Potency": "inactive"}
{"molecule": "CCCNC(=O)C1(C)CCN(CCC(=O)c2ccc(Br)cc2)C1", "note": "(stereo not given)", "Potency": "inconclusive: 35.5 µM [inhibitor, partial curve, poor fit]"}
{"molecule": "O=C(Nc1ccc2c(c1)OCO2)NC1(C(F)(F)F)Oc2ccccc2O1", "Potency": "inconclusive: 35.5 µM [inhibitor, partial curve, poor fit]"}
{"molecule": "CCCCCCCCN1[C@@H](CC(=O)O)c2cc(C(F)(F)F)ccc2S1(=O)=O", "Potency": "inconclusive: 35.5 µM [inhibitor, single point]"}
{"molecule": "COCCn1c(SCc2nc3scc(-c4ccc(Cl)cc4)c3c(=O)[nH]2)nnc1-c1cccc(C)c1", "Potency": "inconclusive: 15.8 µM [inhibitor, single point]"}
{"molecule": "Cc1ccc(NC(=O)N2CC=C(c3c[nH]c4ccccc34)CC2)cc1Cl", "Potency": "inconclusive: 17.8 µM [inhibitor, partial curve, poor fit]"}
{"molecule": "COc1ccc(CC(=O)Nc2nccs2)cc1OC", "Potency": "inactive"}
{"molecule": "O=C(Cc1ccccc1)N/N=C/c1ccc(-c2ccc([N+](=O)[O-])cc2)o1", "Potency": "active: 7.94 µM"}
{"molecule": "O=C(N=c1ccn(-c2nc3ccccc3nc2NS(=O)(=O)c2ccccc2)cc1)c1cccs1", "Potency": "inconclusive: 35.5 µM [inhibitor, single point]"}
{"molecule": "CCn1c(=O)c([N+](=O)[O-])c(Cl)c2ccccc21", "Potency": "inconclusive: 20 µM [inhibitor, single point]"}
{"molecule": "Clc1ccc(N2N=C(c3cccs3)CC2c2ccco2)cc1", "note": "(stereo not given)", "Potency": "inactive"}
